Our source for the GI50 and TGI values is PubChem BioAssay (NCI).

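All cell lines were grown in 96-well plates and treated with compound for 48 hours. At the GI50, growth is halved. TGI: total growth inhibition.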

In this assay the test system is NCI-H322M lung. Put plainly: growth of human tumour cells (NCI), 48 h.
Take `COc1cc2cc(Oc3ccc(NC(=O)c4cccc5c4OCCO5)cc3)c(C)nc2cc1OC`: the GI50 was 17.7 µM and the TGI was greater than 100 µM. Taken in the same sequence, the figures for `O=C(CCN1CCCC1)Nc1ccc2c(Nc3ccccc3)c3ccccc3nc2c1` were 0.72 µM and 2.79 µM.

Compound `Cc1cc2occ(-c3ccc(Cl)cc3)c2c(=O)o1` came in with a TGI greater than 100 µM.

For `NS(=O)(=O)c1ccc(NC(=O)c2cccn3c(=O)c4ccccc4nc23)cc1`, the TGI is greater than 100 µM. `O=c1c2c(nc3n1CCC3)sc1c(O)c(Br)ccc12` had a TGI of 59.1 µM. Same read-out and setting: next, `COc1ccc(-c2nc(-c3cnccn3)n(C3OC(CO)C(O)C(O)C3O)n2)cc1` (stereo not drawn): greater than 100 µM; `COC(=O)c1c(OC)cc2cc3c(c(O)c2c1C)C(=O)C1(O)C(=O)C=C(OC)C(OC(=O)CC(C)N)=C1C3=O` (stereo not drawn): greater than 100 µM. As to `COc1ccc(-c2nc3c(c(=O)n2C(C)=O)C(c2ccc(Cl)cc2)c2sc4c(Cl)cccc4c2O3)cc1` (stereo not drawn), the GI50 is 0.717 µM and the TGI was 3.31 µM. Taken in the same sequence, the figures for `c1ccc(CC(NCCNC(Cc2ccccc2)c2ccccc2)c2ccccc2)cc1` (stereo not drawn) were 1.12 µM and 3.77 µM.

`C/C(=N\Nc1ccccc1)C(CN(C)C)C(c1ccccc1)c1c(O)c2ccccc2oc1=O` (stereo not drawn) returned a TGI greater than 100 µM. `C=CC(=O)Nc1cccc(Nc2nc(Nc3ccc(OCCOC(F)F)cc3)ncc2F)c1`: the GI50 is 1.33 µM and the TGI was greater than 100 µM. `C/C(=C\Cc1cc(O)ccc1O)CCc1c(C)cc(O)c(C=O)c1C` displayed a TGI of 92.1 µM. Still for that read-out and setting: with `COc1ccc2[nH]c3c(=O)[nH]ncc3c2c1` the figure was greater than 100 µM.
